# Assay results from the supplement of paper PMC5655136.
# These are enrichments in a pooled selection; single values are uncertain.
# System: NB7
# Experiment: fold depletion of shRNA, plasmid library share / infected cells without Dox share (9 days) (ratio); higher = more depleted after infection (more toxic, leaky expression from a Tet-inducible vector; NB7 is a neuroblastoma line without caspase-8)
# [1] = shRNA pool: CD95L ORF + CD95L 3'UTR + Venus libraries
# [2] = shRNA pool: CD95 ORF + CD95 3'UTR + Venus libraries
# 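Note: shRNA barcodes quantified by deep sequencing of PCR amplicons from cellular DNA, counts expressed as percent of each subpool, ratio averaged over two biological duplicates.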
Sequence,fold depletion of shRNA [1],fold depletion of shRNA [2]
GGACGGCGGCGTGCAGCTCGC,0.451,0.601
GGACTCATTTCATTCCTAACA,2.91,–
GGACTGCACAGTCAATGGGGA,–,0.464
GGACTGTCTTTCAGATACATG,1.42,–
GGAGAAGCAAATAGGCCACCC,1.91,–
GGAGAAGCATGAAAAAGCAGC,2.37,–
GGAGAGTATTACTAGAGCTTT,–,0.955
GGAGATACTAACTGCTCTCAG,–,2.9
GGAGCGCACCATCTTCTTCAA,0.914,1.62
GGAGCTGTTCACCGGGGTGGT,0.488,1.1
GGAGGAATATGACGGAAGAAC,2.67,–
GGAGGACGGCAACATCCTGGG,0.919,0.699
GGAGGCCACCACCACCACCGC,11.6,–
GGAGTACAACTACAACAGCCA,3.46,1.23
GGAGTCATGACACTAAGTCAA,–,2.72
GGAGTGAAGTATAAGAAGGGT,0.827,–
GGAGTGTATGCAGAGGATGAA,–,2.66
GGAGTTCGTGACCGCCGCCGG,1.47,1.13
GGATCACTCTCGGCATGGACG,1.77,–
GGATCCAGATCTAACTTGGGG,–,0.226
GGATCTGGTGATGATGGAGGG,3.99,–
GGATGAAAGATTAAGATTATG,–,1.96
GGATGAACCAGACTGCGTGCC,–,1.58
GGATGGAAAAGGAAGACTAGA,1.65,–

Sequence,fold depletion of shRNA [1],fold depletion of shRNA [2]
GGATGTTTAAAATCTAGTTGG,–,1.81
GGATGTTTCAGCTCTTCCACC,8.42,–
GGATTCTTTCCATTATGATTC,1.37,–
GGATTGGAATTGAGGAAGACT,–,1.36
GGATTGGGCCTGGGGATGTTT,0.209,–
GGATTTAAGGGATGGAAAAGG,0.93,–
GGATTTAGGAATTGCTCTTGT,–,1.2
GGATTTTTTTGCCCCTTGTGT,–,5.65
GGCAACATCCTGGGGCACAAG,1.67,2.12
GGCAACTACAAGACCCGCGCC,1.67,1.04
GGCAAGACTGCCCTTAGAAAT,–,1.37
GGCAAGCTGACCCTGAAGCTG,1.51,1.99
GGCAAGCTGCCCGTGCCCTGG,0.499,1.31
GGCAATAAATTTATCTGATGT,–,0.949
GGCACAAGCTGGAGTACAACT,3.17,1.89
GGCACCGAGAATGTTGTATTC,2.95,–
GGCAGATGTGGGCCCGCAGCA,2.74,–
GGCAGATTGAAAAGGACACCT,1.21,–
GGCAGCTTATACATAGCAATG,–,1.63
GGCAGTGTTCAATCTTACCAG,0.777,–
GGCATCAACTTCATGGAAAGA,–,1.35
GGCATCAAGGCCAACTTCAAG,1.18,2.5
GGCATCGACTTCAAGGAGGAC,1.64,1.16
GGCATCTAACATATGATTCTG,–,1.12

Sequence,fold depletion of shRNA [1],fold depletion of shRNA [2]
GGCATCTGGACCCTCCTACCT,–,2.09
GGCATGGACGAGCTGTACAAG,–,3.7
GGCCAACTTCAAGATCCGCCA,0.979,0.988
GGCCAATGCCCCACTGGCAGC,0.873,–
GGCCAATTCTGCCATAAGCCC,–,2.61
GGCCACAAGTTCAGCGTGTCC,–,1.49
GGCCACCACCACCACCGCCAC,0.429,–
GGCCACCCCAGTCCACCCCCT,0.275,–
GGCCCACCCTCGTGACCACCC,0.396,0.639
GGCCCATTTAACAGGCAAGTC,0.695,–
GGCCCCGTGCTGCTGCCCGAC,0.827,0.417
GGCCCCTCCAGGCACAGTTCT,1.12,–
GGCCTGCAGTGCTTCGCCCGC,2.12,1.09
GGCCTGCATCATGATGGCCAA,–,1.01
GGCCTTGCTACCTCAAGGGGG,1.37,–
GGCCTTGTGATCAATGAAACT,2.19,–
GGCGACACCCTGGTGAACCGC,0.398,2.73
GGCGACGGCCCCGTGCTGCTG,0.407,1.28
GGCGACGTAAACGGCCACAAG,3.39,2.73
GGCGAGGAGCTGTTCACCGGG,0.447,0.344
GGCGAGGGCGAGGGCGATGCC,0.491,0.454
GGCGAGGGCGATGCCACCTAC,0.801,0.659
GGCGATGCCACCTACGGCAAG,0.437,0.748
GGCGGCGTGCAGCTCGCCGAC,1.11,1.08

Sequence,fold depletion of shRNA [1],fold depletion of shRNA [2]
GGCGTGCAGCTCGCCGACCAC,1.34,2.74
GGCTAACCCCACTCTATGAAT,–,1.67
GGCTACGGCCTGCAGTGCTTC,0.314,0.528
GGCTACGTCCAGGAGCGCACC,0.726,1.35
GGCTCTACCTCAAAGACCTTT,–,0.524
GGCTGCCATGTGAAGAGGGAG,1.22,–
GGCTGTAAATACTGCTTGGTT,–,1.95
GGCTGTACTTTGTATATTCCA,3.84,–
GGCTTAGAAGTGGAAATAAAC,–,1.08
GGCTTGCATAATAAGCTAAAG,2.45,–
GGCTTTGTCTTCTTCTTTTGC,–,1.67
GGGAAAACAAACTTCATCAAG,–,1.05
GGGAACCACAGCACAGGCCTG,1.56,–
GGGAAGACACCTATGGAATTG,1.28,–
GGGAAGGAGTACACAGACAAA,–,1.7
GGGACTCATTTCATTCCTAAC,2.35,–
GGGACTGCACAGTCAATGGGG,–,1.24
GGGACTGTCTTTCAGATACAT,2.71,–
GGGAGAAGCATGAAAAAGCAG,0.609,–
GGGATCACTCTCGGCATGGAC,2.89,1.22
GGGATGAACCAGACTGCGTGC,–,0.852
GGGATGGAAAAGGAAGACTAG,1.27,–
GGGATGTTTCAGCTCTTCCAC,7.59,–
GGGATTCTTTCCATTATGATT,1.35,–

Sequence,fold depletion of shRNA [1],fold depletion of shRNA [2]
GGGATTGGAATTGAGGAAGAC,–,0.727
GGGCACAAGCTGGAGTACAAC,1.35,1.04
GGGCAGTGTTCAATCTTACCA,1.34,–
GGGCATCGACTTCAAGGAGGA,1.61,1.22
GGGCATCTGGACCCTCCTACC,–,1.49
GGGCCCGCAGCAGCTACCTGG,0.738,–
GGGCCTTGCTACCTCAAGGGG,0.468,–
GGGCGACACCCTGGTGAACCG,3.56,1.37
GGGCGAGGAGCTGTTCACCGG,1.37,1
GGGCGAGGGCGATGCCACCTA,1.69,1.34
GGGCGATGCCACCTACGGCAA,1.14,0.821
GGGCTACGGCCTGCAGTGCTT,–,1.35
GGGCTGCCATGTGAAGAGGGA,0.339,–
GGGCTGTACTTTGTATATTCC,1.15,–
GGGGAAGATGATGAGCTACTG,9.52,–
GGGGACTGTCTTTCAGATACA,2.61,–
GGGGATGAACCAGACTGCGTG,–,1.15
GGGGATGTTTCAGCTCTTCCA,1.1,–
GGGGCACAAGCTGGAGTACAA,1.21,1.76
GGGGCAGTGTTCAATCTTACC,0.389,–
GGGGGACTGTCTTTCAGATAC,2.28,–
GGGGTCAATCTTGCAACAACC,0.852,–
GGGGTGTGTGTGTGTGTGTGT,2.03,–
GGGTACATTTTATCATTTATT,–,1.1

Sequence,fold depletion of shRNA [1],fold depletion of shRNA [2]
GGGTCAATCTTGCAACAACCT,2.46,–
GGGTCTTCTTACATGCATTTG,4.12,–
GGGTGAAGAGAAAGGAAGTAC,–,1.54
GGGTGGACAGCAGTGCCAGCT,10.2,–
GGGTGGCCTTGTGATCAATGA,1.86,–
GGGTGGCTTTGTCTTCTTCTT,–,0.639
GGGTGGTGCCCATCCTGGTCG,0.704,0.708
GGGTGTGTGTGTGTGTGTGTG,1.93,–
GGGTTCAAAATGTCTGTAGCT,0.973,–
GGGTTGCATTTGGTCAAGATT,0.69,–
GGTAAAAGTACGTAATTAAAT,–,1.48
GGTAAAATCATCATCTGGATT,–,2.92
GGTACATTTTATCATTTATTA,–,1.24
GGTAGGATTGGGCCTGGGGAT,1.34,–
GGTCAAGATTTTGAATGCTTC,1.38,–
GGTCAAGTAAGAAGACATGAA,0.862,–
GGTCAATTTTGAGGAATCTCA,2.27,–
GGTCCATGCCTCTGGAATGGG,15.8,–
GGTCCTGCTGGAGTTCGTGAC,1.53,0.989
